{"source": "paper PMC5339707", "about": "“ACCORD: an assessment tool to determine the orientation of homodimeric coiled-coils” (Scientific Reports, 2017)", "proteins": {"B1": {"name": "His6-SspB-BECN1 ([…]) fusion protein (other, E. coli | H. sapiens)", "chain": "MDLSQLTPRRPYLLRAFYEWLLDNQLTPHLVVDVTLPGVQVPMEYARDGQIVLNIAPRAVGNLELANDEVRFNARFGGIPRQVSVPLAAVLAIYARENGAGTMFEPEAAYDEDTSIMNDEEASADNETVMSVIDGDKPDHDDDTHPDDEPPQPPRGGRPALRVVK[about 100 residues left out here]", "notes": "Stringent starvation protein B (SspB), E. coli, full length, […] ([…]), amplified from genomic DNA; Beclin-1 (BECN1), human cDNA, coiled-coil domain, […] ([…]); the construct here was amplified from human cDNA; also called Beclin-1; source: E. coli BL21(DE3), purified (HisTrap, Superdex 200); not shown: His6, N-terminal, kept"}}, "molecular_target": "the molecule itself", "experiment": "SEC-MALS; self-association of His6-SspB-CCD fusion proteins (ACCORD); Superdex 200 10/300 GL, 50 mM Tris pH 8.0, 0.5 mM TCEP, 200 mM NaCl; sample 3-5 mg/ml, 0.5 ml", "data": [{"protein": "B1", "values": [{"measurement": "stoichiometry N", "value": 4}]}]}
